First the molecules themselves.
B1: ELK4, P28324 (protein)
chain: MDSAITLWQFLLQLLQKPQNKHMICWTSNDGQFKLLQAEEVARLWGIRKNKPNMNYDKLSRALRYYYVKNIIKKVNGQKFVYKFVSYPEILNMDPMTVGRIEGDCESLNFSEVSSSSKDVENGGKDKPPQPGAKTSSRNDYIHSGLYSSFTLNSLNSSNVKLFKLIKTENPAEKLAEKKSPQEPTPSVIKFVTTPSKKPPVEPVAATISIGPSISPSSEETIQALETLVSPKLPSLEAPTSASNVMTAFATTPPISSIPPLQEPPRTPSPPLSSHPDIDTDIDSVASQPMELPENLSLEPKDQDSVLLEKDKVNNSSRSKKPKGLELAPTLVITSSDPSPLGILSPSLPTASLTPAFFSQTPIILTPSPLLSSIHFWSTLSPVAPLSPARLQGANTLFQFPSVLNSHGPFTLSGLDGPSTPGPFSPDLQKT
B2: JUP, P14923 (protein)
chain: MEVMNLMEQPIKVTEWQQTYTYDSGIHSGANTCVPSVSSKGIMEEDEACGRQYTLKKTTTYTQGVPPSQGDLEYQMSTTARAKRVREAMCPGVSGEDSSLLLATQVEGQATNLQRLAEPSQLLKSAIVHLINYQDDAELATRALPELTKLLNDEDPVVVTKAAMIVNQLSKKEASRRALMGSPQLVAAVVRTMQNTSDLDTARCTTSILHNLSHHREGLLAIFKSGGIPALVRMLSSPVESVLFYAITTLHNLLLYQEGAKMAVRLADGLQKMVPLLNKNNPKFLAITTDCLQLLAYGNQESKLIILANGGPQALVQIMRNYSYEKLLWTTSRVLKVLSVCPSNKPAIVEAGGMQALGKHLTSNSPRLVQNCLWTLRNLSDVATKQEGLESVLKILVNQLSVDDVNVLTCATGTLSNLTCNNSKNKTLVTQNSGVEALIHAILRAGDKDDITEPAVCALRHLTSRHPEAEMAQNSVRLNYGIPAIVKLLNQPNQWPLVKATIGLIRNLALCPANHAPLQEAAVIPRLVQLLVKAHQDAQRHVAAGTQQPYTDGVRMEEIVEGCTGALHILARDPMNRMEIFRLNTIPLFVQLLYSSVENIQRVAAGVLCELAQDKEAADAIDAEGASAPLMELLHSRNEGTATYAAAVLFRISEDKNPDYRKRVSVELTNSLFKHDPAAWEAAQSMIPINEPYGDDMDATYRPMYSSDVPLDPLEMHMDMDGDYPIDTYSDGLRPPYPTADHMLA
B3: ARID5B, Q14865 (protein)
chain: MEPNSLQWVGSPCGLHGPYIFYKAFQFHLEGKPRILSLGDFFFVRCTPKDPICIAELQLLWEERTSRQLLSSSKLYFLPEDTPQGRNSDHGEDEVIAVSEKVIVKLEDLVKWVHSDFSKWRCGFHAGPVKTEALGRNGQKEALLKYRQSTLNSGLNFKDVLKEKADLGEDEEETNVIVLSYPQYCRYRSMLKRIQDKPSSILTDQFALALGGIAVVSRNPQILYCRDTFDHPTLIENESICDEFAPNLKGRPRKKKPCPQRRDSFSGVKDSNNNSDGKAVAKVKCEARSALTKPKNNHNCKKVSNEEKPKVAIGEECRADEQAFLVALYKYMKERKTPIERIPYLGFKQINLWTMFQAAQKLGGYETITARRQWKHIYDELGGNPGSTSAATCTRRHYERLILPYERFIKGEEDKPLPPIKPRKQENSSQENENKTKVSGTKRIKHEIPKSKKEKENAPKPQDAAEVSSEQEKEQETLISQKSIPEPLPAADMKKKIEGYQEFSAKPLASRVDPEKDNETDQGSNSEKVAEEAGEKGPTPPLPSAPLAPEKDSALVPGASKQPLTSPSALVDSKQESKLCCFTESPESEPQEASFPSFPTTQPPLANQNETEDDKLPAMADYIANCTVKVDQLGSDDIHNALKQTPKVLVVQSFDMFKDKDLTGPMNENHGLNYTPLLYSRGNPGIMSPLAKKKLLSQVSGASLSSSYPYGSPPPLISKKKLIARDDLCSSLSQTHHGQSTDHMAVSRPSVIQHVQSFRSKPSEERKTINDIFKHEKLSRSDPHRCSFSKHHLNPLADSYVLKQEIQEGKDKLLEKRALPHSHMPSFLADFYSSPHLHSLYRHTEHHLHNEQTSKYPSRDMYRESENSSFPSHRHQEKLHVNYLTSLHLQDKKSAAAEAPTDDQPTDLSLPKNPHKPTGKVLGLAHSTTGPQESKGISQFQVLGSQSRDCHPKACRVSPMTMSGPKKYPESLSRSGKPHHVRLENFRKMEGMVHPILHRKMSPQNIGAARPIKRSLEDLDLVIAGKKARAVSPLDPSKEVSGKEKASEQESEGSKAAHGGHSGGGSEGHKLPLSSPIFPGLYSGSLCNSGLNSRLPAGYSHSLQYLKNQTVLSPLMQPLAFHSLVMQRGIFTSPTNSQQLYRHLAAATPVGSSYGDLLHNSIYPLAAINPQAAFPSSQLSSVHPSTKL
B4: EHF, Q9NZC4 (protein)
chain: MILEGGGVMNLNPGNNLLHQPPAWTDSYSTCNVSSGFFGGQWHEIHPQYWTKYQVWEWLQHLLDTNQLDANCIPFQEFDINGEHLCSMSLQEFTRAAGTAGQLLYSNLQHLKWNGQCSSDLFQSTHNVIVKTEQTEPSIMNTWKDENYLYDTNYGSTVDLLDSKTFCRAQISMTTTSHLPVAESPDMKKEQDPPAKCHTKKHNPRGTHLWEFIRDILLNPDKNPGLIKWEDRSEGVFRFLKSEAVAQLWGKKKNNSSMTYEKLSRAMRYYYKREILERVDGRRLVYKFGKNARGWRENEN
B5: BCL10, O95999 (protein)
chain: MEPTAPSLTEEDLTEVKKDALENLRVYLCEKIIAERHFDHLRAKKILSREDTEEISCRTSSRKRAGKLLDYLQENPKGLDTLVESIRREKTQNFLIQKITDEVLKLRNIKLEHLKGLKCSSCEPFPDGATNNLSRSNSDESNFSEKLRASTVMYHPEGESSTTPFFSTNSSLNLPVLEVGRTENTIFSSTTLPRPGDPGAPPLPPDLQLEEEGTCANSSEMFLPLRSRTVSRQ
B6: RAB7B, Q96AH8 (protein)
chain: MNPRKKVDLKLIIVGAIGVGKTSLLHQYVHKTFYEEYQTTLGASILSKIIILGDTTLKLQIWDTGGQERFRSMVSTFYKGSDGCILAFDVTDLESFEALDIWRGDVLAKIVPMEQSYPMVLLGNKIDLADRKVPQEVAQGWCREKDIPYFEVSAKNDINVVQAFEMLASRALSRYQSILENHLTESIKLSPDQSRSRCC
B7: CBFA2T3, O75081 (protein)
chain: MPASRLRDRAASSASGSTCGSMSQTHPVLESGLLASAGCSAPRGPRKGGPAPVDRKAKASAMPDSPAEVKTQPRSTPPSMPPPPPAASQGATRPPSFTPHTHREDGPATLPHGRFHGCLKWSMVCLLMNGSSHSPTAINGAPCTPNGFSNGPATSSTASLSTQHLPPACGARQLSKLKRFLTTLQQFGSDISPEIGERVRTLVLGLVNSTLTIEEFHSKLQEATNFPLRPFVIPFLKANLPLLQRELLHCARLAKQTPAQYLAQHEQLLLDASASSPIDSSELLLEVNENGKRRTPDRTKENGSDRDPLHPEHLSKRPCTLNPAQRYSPSNGPPQPTPPPHYRLEDIAMAHHFRDAYRHPDPRELRERHRPLVVPGSRQEEVIDHKLTEREWAEEWKHLNNLLNCIMDMVEKTRRSLTVLRRCQEADREELNHWARRYSDAEDTKKGPAPAAARPRSSSAGPEGPQLDVPREFLPRTLTGYVPEDIWRKAEEAVNEVKRQAMSELQKAVSDAERKAHELITTERAKMERALAEAKRQASEDALTVINQQEDSSESCWNCGRKASETCSGCNAARYCGSFCQHRDWEKHHHVCGQSLQGPTAVVADPVPGPPEAAHSLGPSLPVGAASPSEAGSAGPSRPGSPSPPGPLDTVPR
B8: RAD21, O60216 (protein)
chain: MFYAHFVLSKRGPLAKIWLAAHWDKKLTKAHVFECNLESSVESIISPKVKMALRTSGHLLLGVVRIYHRKAKYLLADCNEAFIKIKMAFRPGVVDLPEENREAAYNAITLPEEFHDFDQPLPDLDDIDVAQQFSLNQSRVEEITMREEVGNISILQENDFGDFGMDDREIMREGSAFEDDDMLVSTTTSNLLLESEQSTSNLNEKINHLEYEDQYKDDNFGEGNDGGILDDKLISNNDGGIFDDPPALSEAGVMLPEQPAHDDMDEDDNVSMGGPDSPDSVDPVEPMPTMTDQTTLVPNEEEAFALEPIDITVKETKAKRKRKLIVDSVKELDSKTIRAQLSDYSDIVTTLDLAPPTKKLMMWKETGGVEKLFSLPAQPLWNNRLLKLFTRCLTPLVPEDLRKRRKGGEADNLDEFLKEFENPEVPREDQQQQHQQRDVIDEPIIEEPSRLQESVMEASRTNIDESAMPPPPPQGVKRKAGQIDPEPVMPPQQVEQMEIPPVELPPEEPPNICQLIPELELLPEKEKEKEKEKEDDEEEEDEDASGGDQDQEERRWNKRTQQMLHGLQRALAKTGAESISLLELCRNTNRKQAAAKFYSFLVLKKQQAIELTQEEPYSDIIATPGPRFHII
B9: TRIB1, Q96RU8 (protein)
chain: MRVGPVRSAMSGASQPRGPALLFPATRGVPAKRLLDADDAAAVAAKCPRLSECSSPPDYLSPPGSPCSPQPPPAAPGAGGGSGSAPGPSRIADYLLLPLAEREHVSRALCIHTGRELRCKVFPIKHYQDKIRPYIQLPSHSNITGIVEVILGETKAYVFFEKDFGDMHSYVRSRKRLREEEAARLFKQIVSAVAHCHQSAIVLGDLKLRKFVFSTEERTQLRLESLEDTHIMKGEDDALSDKHGCPAYVSPEILNTTGTYSGKAADVWSLGVMLYTLLVGRYPFHDSDPSALFSKIRRGQFCIPEHISPKARCLIRSLLRREPSERLTAPEILLHPWFESVLEPGYIDSEIGTSDQIVPEYQEDSDISSFFC

The list shows a part of the results. Binding of human transcription factors and regulators to the viral nucleoprotein by AlphaScreen, crude cell-free proteins, amounts not normalised, one pass. Fold of the Venus control; higher = more signal. No active / inactive call. Single-pass screen; sequences are the whole Swiss-Prot entries looked up by name.

The target of the experiment is nucleoprotein N of Crimean-Congo hemorrhagic fever virus. Kind of experiment: AlphaScreen luminescence signal relative to Venus negative control (fold); higher = stronger binding to CCHFV N. Here is the method:
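AlphaScreen binding of cell-free made, FLAG-GST-tagged human transcription factors and regulators (crude translation products) to biotinylated N protein; signal as fold of the FLAG-GST-Venus control. One pass.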
In general terms: Bead proximity is the source of the signal in Alpha formats.
As for B1, the AlphaScreen luminescence signal is 2.79.

In turn, B2 displayed an AlphaScreen luminescence signal of 1.91.

As to B3, the AlphaScreen luminescence signal came out at 0.884.

B4 displayed an AlphaScreen luminescence signal of 2.98.

Regarding B5, the AlphaScreen luminescence signal was found to be 3.3.

As for B6, the AlphaScreen luminescence signal came to 2.

Regarding B7, the AlphaScreen luminescence signal was found to be 1.58.

Consider B8, for which the AlphaScreen luminescence signal stood at 1.72.

Molecule B9 yielded an AlphaScreen luminescence signal of 1.77.

(Values after the supplement of paper PMC12423691.)
